The source of these data is ChEMBL document CHEMBL1201862, “PubChem BioAssay data set” (2004).

As a reminder, the GI50 is the concentration that inhibits growth by half.

Several values for one entry are separate records, joined by “and”; a condition that tells them apart may be missing. Equal values may be shown once.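 These data come from cells grown in 96-well plates and exposed to compound for 48 hours at five concentrations. GI50 = concentration required for 50% inhibition of growth.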 Activity calls are given as the source filed them. Cut-off read from the data, not from the text of the source: active = GI50 up to about 1.1 µM and inactive = higher.

The assay concerns NCI-H322M. The assay can be described thus: DTP human tumour cell line panel, 48 h.
Take `O=C(/C=C/c1ccc(O)c(O)c1O)OCCc1ccccc1`: the GI50 is inactive: 26.5 µM.

Turning to `Nc1ccc2[nH]cc(CCC(=O)O)c2c1`, the GI50 is inactive: > 100 µM.

`Sc1ncnc2c1ncn2C1CCCO1` (centres undefined): the GI50 was inactive: > 100 µM.

`O=C1NC(=O)C2(CCCCCC2)N1`: the GI50 is inactive: > 100 µM.

Take `CC(=O)OCCN1c2ccccc2Sc2cnccc21`: the GI50 is inactive: > 10 µM.

`Oc1c(Cl)c2nccnc2c2ccccc12`: the GI50 was inactive: > 100 µM.

For the compound `CC(Oc1ccc(Cl)cc1Cl)C(=O)NN1C(=O)CC(=O)N(c2ccccc2)C1=S` (centres undefined), the GI50 was inactive: 54.5 µM.

In the case of `O=C1/C(=C\c2cccc(Oc3ccccc3)c2)SC(c2ccccc2)N1c1ccc(Cl)cc1` (centres undefined), the GI50 was inactive: > 100 µM.

Consider `C=C(C)C12CC3CC(/C(=N/O)C(C1)/C3=N\O)[C@@]2(C)O` (some centres undefined), for which the GI50 is inactive: > 100 µM.

As to `C/C(=N/NC(=S)Nc1ccc([N+](=O)[O-])cc1)c1cccc(/C(C)=N\NC(=S)Nc2ccc([N+](=O)[O-])cc2)n1`, the 50% growth inhibitory concentration (GI50) is active: 0.351 µM.

`CC(NC1=NCCO1)c1ccco1` (centres undefined): the GI50 is inactive: > 100 µM.

Regarding `CCOC(=O)C1(Cc2ccc(C)cc2)Cc2ccc(C)cc2C1=O` (centres undefined), the GI50 was inactive: 72.1 µM.

As for `c1cc(-c2cscc2-c2ccsc2)cs1`, the GI50 was inactive: > 100 µM.

As to `COc1ccc(SCc2cc(OC)c(OC)c(OC)c2)cc1OC`, the GI50 was inactive: > 100 µM.

For `CCCCOC(=O)NC(Nc1cccc(C(F)(F)F)c1)(C(F)(F)F)C(F)(F)F`, the GI50 is inactive: > 100 µM.

As to `N#CC(NNC(=O)c1ccccc1O)c1ccccc1O` (centres undefined), the GI50 is inactive: 4.53 µM.

For the compound `O=C(O)/C=C\C(=O)Nc1ccc(S(=O)(=O)c2ccc(NC(=O)/C=C\C(=O)O)cc2)cc1`, the GI50 was inactive: > 100 µM.

Consider `O=C(CC(=O)N1N=C(N(c2ccccc2)c2ccccc2)CC1c1ccccc1)Nc1ccccc1` (centres undefined), for which the GI50 is inactive: > 100 µM.

With `Cn1cc(NC(=O)c2cc(NC(=O)CCCCCCC(=O)Nc3cc(C(=O)Nc4cc(C(=O)NCCC(=N)N)n(C)c4)n(C)c3)cn2C)cc1C(=O)NCCC(=N)N`, the GI50 is inactive: 39.4 µM.

For `O=C(Cc1nc2c3c(ccc2nc1O)C(=O)c1ccccc1C3=O)C(=O)Nc1ccccc1[N+](=O)[O-]`, the GI50 was inactive: 90.4 µM.

For `O=c1c2cc(I)ccc2nc(Sc2ccc([N+](=O)[O-])cc2[N+](=O)[O-])n1Cc1ccccc1`, the GI50 was inactive: 10.8 µM.

For the compound `NC(=O)C(=Cn1c(=S)[nH]c2ccc([N+](=O)[O-])cc21)C(N)=O`, the GI50 was inactive: > 100 µM.

Take `NN/C(=N\S(=O)(=O)c1cc2ccccc2s1)Nc1ccc(Cl)cc1`: the GI50 is inactive: 22.4 µM.

With `COc1ccc(/C=C/NC=O)cc1`, the GI50 was inactive: > 100 µM.

As to `COC(=O)c1ccc(C)cc1C1CN=NC12Cc1cccc(C)c1C2=O` (centres undefined), the GI50 is inactive: > 100 µM.

Turning to `O=C1C2=Cc3ccccc3CCN2c2ccccc21`, the GI50 was inactive: > 64.3 µM.

On to `COC(=O)[C@H](CCSC)NC(=O)c1ccc(CNC(=O)/C=C/c2cccc(Oc3ccccc3)c2)cc1`, for which the GI50 was inactive: 38.2 µM.

Consider `N/N=C1\C(=O)N(Cc2ccccc2)C(=O)C1C(=O)NCc1ccccc1` (centres undefined), for which the GI50 was inactive: > 100 µM.

Consider `O=C(CCC(=O)N/N=C/c1ccccc1O)N/N=C/c1ccccc1O`, for which the GI50 was inactive: > 100 µM.

Turning to `COC(=O)[C@@H]1C=C[C@H](OC2OC(COC(C)=O)C(OC(C)=O)C(OC(C)=O)C2OC(C)=O)n2c(=O)n(-c3ccccc3)c(=O)n21` (some centres undefined), the GI50 is inactive: 15.2 µM.

Regarding `COC(=O)C1OC(O[C@H]2CC[C@]3(C)[C@H]4CC=C5[C@@H]6CC(C)(C)CC[C@]6(C(=O)OC6OCC(O)C(O)C6OC6OC(C)C(OC7OCC(O)C(O)C7O)C(O)C6O)[C@H](O)C[C@@]5(C)[C@]4(C)CC[C@H]3C2(C)C)C(O)C(O)C1O` (some centres undefined), the GI50 is inactive: 2.32 µM and inactive: 2.41 µM.

As to `CCOc1ccc(/C=C2/C(=O)N/C(=N\C(C)=O)N2C)cc1`, the GI50 is inactive: > 100 µM.

For `CCOC(=O)c1c(Cl)nc2ccccc2c1N=[N+]=[N-]`, the GI50 is inactive: 26.7 µM.

As to `CN1C(c2ccccc2)CS(=O)(=O)CS1(=O)=O` (centres undefined), the GI50 was inactive: > 100 µM.

As to `O=C(NNS(=O)(=O)c1ccccc1)c1csc(NC(=S)NC2CCCCC2)n1`, the GI50 is inactive: 32.6 µM.

Take `CCCCCCCCCCCCc1ccsc1-c1ccc(-c2ccc(-c3sc(-c4cc(CCCCCCCCCCCC)c(-c5ccc(-c6ccc(-c7sccc7CCCCCCCCCCCC)s6)s5)s4)cc3CCCCCCCCCCCC)s2)s1`: the GI50 is inactive: > 100 µM.

As for `COc1ccc([C@@H]2CC(=O)NCCCCNCCCN2)cc1`, the GI50 was inactive: > 100 µM.

As for `O=c1/c(=C/c2ccccc2[N+](=O)[O-])sc2nnc(-c3cccnc3)n12`, the GI50 is inactive: > 100 µM.

Take `COc1ccccc1C(O)[C@@H]1C[C@@H]2[C@H]3CC[C@@](C)([C@@H]2O1)C3(C)C` (some centres undefined): the GI50 is inactive: 22.1 µM.

On to `O=C(/C=C1\N=C(c2ccccc2)N(c2ccc3c(c2)Sc2cc(N4C(=O)/C(=C/C(=O)/C=C/c5ccccc5)N=C4c4ccccc4)ccc2N3)C1=O)/C=C/c1ccccc1`, for which the GI50 is inactive: 21.1 µM.

On to `O=C(Cc1ccccc1)NCCCN(CCCCN(CCCNC(=O)Cc1ccccc1)C(=O)OCc1ccccc1)C(=O)OCc1ccccc1`, for which the GI50 was inactive: > 100 µM.

Consider `CC1(C)OC[C@H](COCOP2(=O)Oc3ccc4ccccc4c3-c3c(ccc4ccccc34)O2)O1`, for which the GI50 is inactive: 18.9 µM.

Turning to `O=C(NC(=O)c1cc2cc(Br)cc(Br)c2oc1=O)Oc1ccccc1`, the GI50 is inactive: > 100 µM.

Consider `O=C(O)c1ccccc1/C=C1\Cc2cc3c(cc2C1=O)CCC3`, for which the GI50 was inactive: 36.1 µM.

Consider `C[C@]12C[C@H](c3ccccc3)Nc3ccccc3N1C(c1ccccc1)=NO2`, for which the GI50 is inactive: > 100 µM.

On to `O=C1NC(O)c2ccccc2O1` (centres undefined), for which the GI50 was inactive: > 100 µM.

`CS[C@]12[C@@H]3C(=O)N(C)C(=O)[C@@H]3[C@](C)(C(=O)N1C)C(=O)N2c1ccccc1`: the GI50 is inactive: > 100 µM.

Take `Cc1ccc(-c2nc(N/N=C/C=C/c3ccccc3)c3ccccc3n2)cc1`: the GI50 was inactive: 18.1 µM.

With `COc1cc2c(cc1O)CC[n+]1cc3c(OC)c(OC)ccc3cc1-2`, the GI50 is inactive: > 100 µM.

On to `CCO/C(=N/S(=O)(=O)C(F)(F)F)N(C(C)C)C(C)C`, for which the GI50 is inactive: > 100 µM.

For `Cn1c(=O)c2c(nc3n(C)c(=O)c4ccccc4n23)n(C)c1=O`, the GI50 was inactive: > 100 µM.

With `O=C(O)/C(Cl)=C(\Cl)C(=O)Nc1ccc(Cl)c(Cl)c1Cl`, the GI50 was inactive: 20.8 µM.

For the compound `COC12OC3CC4(C)C(=CC3OC(OC(C)C1O)C2O)CCC1C4CCC2(C)C(c3ccc(=O)oc3)CCC12O` (centres undefined), the 50% growth inhibitory concentration (GI50) is active: < 0.001 µM.

Take `COc1ccc(OC)c(CCc2ccccc2CC(=O)O)c1`: the GI50 was inactive: > 100 µM.

Turning to `COP(=O)(OC)C(O)CC(C)C` (centres undefined), the GI50 is inactive: > 100 µM.

For the compound `Cc1cnc2c(C)ccc([N+](=O)[O-])c2c1NCCCN(C)C`, the GI50 is inactive: > 100 µM.

As to `COc1ccc(CCn2cncn2)cc1`, the GI50 was inactive: > 100 µM.

Consider `C[C@]12CCc3nonc3C1CC[C@@H]1C2CC[C@]2(C)NC(=O)CCC12` (some centres undefined), for which the GI50 is inactive: > 100 µM.

In the case of `[O-][Cl+3]([O-])([O-])[O-].c1ccc(-c2csc3c4ccccc4c4ccccc4[n+]23)cc1`, the GI50 was inactive: 13.7 µM.

In the case of `CN(c1ccccc1)c1c(-c2ccccc2)c(=O)oc2c1ccc1occc12`, the GI50 was inactive: > 100 µM.

For `CSCC[C@H](NC(=O)[C@H](CC(C)C)NC(=O)[C@@H](Cc1ccccc1)NC(=O)CNC(=O)[C@@H](NC(=O)[C@H](C)NC(=O)[C@H](Cc1c[nH]c2ccccc12)NC(=O)[C@H](CCC(N)=O)NC(=O)[C@H](N)CC(N)=O)C(C)C)C(N)=O`, the GI50 was inactive: > 12.5 µM.

Consider `CC1(C)OCN(c2ccc(N3CCOCC3)cc2)Cn2c1nc1ccccc12`, for which the GI50 is inactive: > 100 µM.

Turning to `Cn1c(=O)c(C(=O)NC23CC4CC(CC(C4)C2)C3)c(O)c2ccccc21`, the GI50 is inactive: 25.2 µM.

Regarding `C[C@]12CCNC(=O)C=C1CC[C@@H]1C2CC[C@@]2(C)C1CC[C@@H]2OC(=O)COc1ccc(N(CCCl)CCCl)cc1` (some centres undefined), the GI50 was inactive: 17 µM.

For `NC(=S)NN=C1Cc2ccccc2C1`, the GI50 was inactive: > 100 µM.

For the compound `CCO[C@@]1(COCc2ccccc2)OC(=O)C[C@@H]1N1C(=O)OC[C@@H]1c1ccccc1`, the GI50 was inactive: > 100 µM.

Regarding `CCC(=O)NCC1CCCN2CCCCC12` (centres undefined), the GI50 is inactive: > 100 µM.

On to `CCOC(=O)C(NC(=O)C(CCCCNP(=O)(OCC)OCC)NC(=O)C(C)NC(C)=O)C(C)C` (centres undefined), for which the GI50 was inactive: > 100 µM.

On to `N#CC[C@@H](O)COc1ccccc1`, for which the GI50 was inactive: > 100 µM.

With `CN1CCn2c(Br)ccc2C1=O`, the GI50 is inactive: > 100 µM.

Regarding `CC1(C)OC2C(CO)OC(n3ccc(=O)[nH]c3=O)C2O1` (centres undefined), the GI50 is inactive: > 100 µM.

For the compound `Cc1ccc(S(=O)(=O)NC(=O)C2S(=O)(=O)OCCOS2(=O)=O)cc1`, the GI50 is inactive: > 100 µM.

For the compound `CC(=O)C1CC=C(C)CC1` (centres undefined), the GI50 was inactive: > 100 µM.

With `CCc1cccc(C(C)C)c1NC1=C([n+]2ccc(C)cc2)C(=O)c2ccccc2C1=O.[O-][Cl+3]([O-])([O-])[O-]`, the GI50 was inactive: 3.75 µM.

In the case of `COc1ccc(/C=C2\CN(C)CC3C2=NN(c2ccccc2)C3c2ccc(OC)cc2)cc1` (centres undefined), the GI50 is inactive: > 100 µM.

Take `COc1ccc(-c2nc3c(nc2-c2ccc(OC)cc2)N(C)S(=O)(=O)N=C3N)cc1`: the GI50 is inactive: 34.9 µM.

Turning to `C[N+](C)(C)CC1CCCC(C[N+](C)(C)C)C1O` (centres undefined), the GI50 is inactive: > 100 µM.

Turning to `NCCCCN(CCCN)C(=O)c1ccccc1`, the GI50 was inactive: > 100 µM.

With `COc1cccc(-c2cc(O)c3cc(N4CCOCC4)ccc3n2)c1`, the concentration for 50% growth inhibition (GI50) is active: 0.0748 µM.
